Patent publication US20210340207A1 (Merck Sharp & Dohme, published 2021)

T1: human IL-2Rβγc (on DERL-7 cells, U2OS IL2RB/IL2RG cells, CD25 knockout Kit225-STAT5 cells, primary CD8+ CTLs) (human, UniProt P14784 27-551; P31785 23-369)
T1 sequence (looked up) 1: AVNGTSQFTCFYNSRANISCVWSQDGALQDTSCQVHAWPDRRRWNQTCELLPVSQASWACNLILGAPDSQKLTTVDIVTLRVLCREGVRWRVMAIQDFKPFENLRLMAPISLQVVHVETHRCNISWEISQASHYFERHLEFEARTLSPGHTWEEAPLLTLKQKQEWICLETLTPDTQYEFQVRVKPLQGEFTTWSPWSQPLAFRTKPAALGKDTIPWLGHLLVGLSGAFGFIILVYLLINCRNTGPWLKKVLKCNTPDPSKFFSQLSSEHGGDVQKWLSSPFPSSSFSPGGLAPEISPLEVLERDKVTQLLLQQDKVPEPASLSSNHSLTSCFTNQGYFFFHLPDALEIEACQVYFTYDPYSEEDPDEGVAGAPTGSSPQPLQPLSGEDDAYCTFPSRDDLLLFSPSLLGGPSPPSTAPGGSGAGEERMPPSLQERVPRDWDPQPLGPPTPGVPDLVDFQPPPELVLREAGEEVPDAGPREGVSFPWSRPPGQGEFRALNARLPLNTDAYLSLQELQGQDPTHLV
T1 sequence (looked up) 2: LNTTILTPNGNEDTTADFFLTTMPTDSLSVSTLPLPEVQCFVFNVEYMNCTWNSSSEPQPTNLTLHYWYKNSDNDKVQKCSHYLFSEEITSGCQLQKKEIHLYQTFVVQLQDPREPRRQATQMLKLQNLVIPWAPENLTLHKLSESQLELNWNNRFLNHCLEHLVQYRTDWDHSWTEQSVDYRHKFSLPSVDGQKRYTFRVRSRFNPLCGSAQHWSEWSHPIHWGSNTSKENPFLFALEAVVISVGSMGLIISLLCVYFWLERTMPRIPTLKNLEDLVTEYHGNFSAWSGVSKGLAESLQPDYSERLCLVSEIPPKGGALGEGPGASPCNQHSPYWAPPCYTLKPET

T2: mouse IL-2Rαβγc (on CTLL2-STAT5 reporter cells) (mouse, UniProt P01590 22-268; P16297 27-539; P34902 23-369)
T2 sequence (looked up) 1: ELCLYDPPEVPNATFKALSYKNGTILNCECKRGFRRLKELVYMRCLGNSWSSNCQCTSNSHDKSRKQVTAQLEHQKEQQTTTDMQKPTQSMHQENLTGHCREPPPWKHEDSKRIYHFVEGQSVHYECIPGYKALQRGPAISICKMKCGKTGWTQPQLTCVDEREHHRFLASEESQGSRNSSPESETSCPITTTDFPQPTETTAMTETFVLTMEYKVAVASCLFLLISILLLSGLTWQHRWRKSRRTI
T2 sequence (looked up) 2: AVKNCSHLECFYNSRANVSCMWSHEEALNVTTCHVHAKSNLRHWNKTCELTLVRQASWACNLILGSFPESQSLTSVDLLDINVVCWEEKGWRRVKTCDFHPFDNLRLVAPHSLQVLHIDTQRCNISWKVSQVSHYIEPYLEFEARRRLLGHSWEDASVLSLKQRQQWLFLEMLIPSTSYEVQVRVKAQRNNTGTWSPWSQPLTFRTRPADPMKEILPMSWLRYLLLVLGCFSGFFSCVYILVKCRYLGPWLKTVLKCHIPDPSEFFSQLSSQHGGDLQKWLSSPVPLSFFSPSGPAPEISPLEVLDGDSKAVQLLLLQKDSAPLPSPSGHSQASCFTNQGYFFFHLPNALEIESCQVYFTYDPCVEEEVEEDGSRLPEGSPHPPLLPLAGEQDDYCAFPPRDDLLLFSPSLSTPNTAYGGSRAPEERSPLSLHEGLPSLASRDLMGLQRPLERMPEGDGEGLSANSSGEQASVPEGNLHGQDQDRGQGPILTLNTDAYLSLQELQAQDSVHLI
T2 sequence (looked up) 3: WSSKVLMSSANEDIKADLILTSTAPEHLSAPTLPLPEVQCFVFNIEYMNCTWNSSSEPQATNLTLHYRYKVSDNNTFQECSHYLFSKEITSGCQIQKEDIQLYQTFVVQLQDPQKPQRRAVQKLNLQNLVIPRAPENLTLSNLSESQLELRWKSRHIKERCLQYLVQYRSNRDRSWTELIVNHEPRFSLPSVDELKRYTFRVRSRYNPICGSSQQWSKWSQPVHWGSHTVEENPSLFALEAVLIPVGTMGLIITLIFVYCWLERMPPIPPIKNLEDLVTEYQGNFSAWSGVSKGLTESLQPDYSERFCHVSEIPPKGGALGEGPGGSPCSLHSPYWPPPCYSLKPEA

T3: Biotin-IL-2Rα-His (UniProt P01589 22-213, limits assumed, biotin-labeled (site not stated))
T3 construct: also called biotin-labeled IL-2Rα; not shown: His tag
T3 sequence (looked up): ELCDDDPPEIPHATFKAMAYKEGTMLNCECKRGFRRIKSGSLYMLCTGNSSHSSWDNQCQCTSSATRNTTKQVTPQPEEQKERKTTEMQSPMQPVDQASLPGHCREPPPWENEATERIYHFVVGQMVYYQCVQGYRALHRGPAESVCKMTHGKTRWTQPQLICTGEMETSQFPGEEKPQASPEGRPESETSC

T4: Biotin-IL-2Rβ-His (UniProt P14784 27-239, limits assumed, biotin-labeled (site not stated))
T4 construct: also called biotin-labeled IL-2Rβ; not shown: His tag
T4 sequence (looked up): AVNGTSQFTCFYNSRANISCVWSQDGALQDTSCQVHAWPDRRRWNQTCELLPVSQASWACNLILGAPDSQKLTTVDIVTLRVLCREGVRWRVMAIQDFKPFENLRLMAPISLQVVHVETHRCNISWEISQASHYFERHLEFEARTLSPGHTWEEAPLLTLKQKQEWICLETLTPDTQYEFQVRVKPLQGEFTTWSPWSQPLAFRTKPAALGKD


Columns and labels:
[1] = target: T1, human IL-2Rβγc (on DERL-7 cells, U2OS …); assay: cell-based or functional assay
[2] = target: T2, mouse IL-2Rαβγc (on CTLL2-STAT5 …); assay: cell-based or functional assay
Biotin-IL-2Rα-His = target: T3, Biotin-IL-2Rα-His; assay: SPR (Biacore T200)
Biotin-IL-2Rβ-His = target: T4, Biotin-IL-2Rβ-His; assay: SPR (Biacore T200)

| Binder | U2OS-IL2Rbg EC50 [1] [nM] | CTLL2-STAT5 EC50 [2] [nM] | Kd (Biotin-IL-2Rα-His) [nM] | fold reduction over wt (Biotin-IL-2Rα-His) [fold] | Kd (Biotin-IL-2Rβ-His) [nM] | fold reduction over wt (Biotin-IL-2Rβ-His) [fold] |
| --- | --- | --- | --- | --- | --- | --- |
| Ald-6HIS_E60T (ligand) not shown | 0.899 | 0.324 | 500 | 50 | 800 | 2 |
| Ald-6HIS_E61S (ligand) not shown | 0.623 | 5.11 | 900 | 90 | 1000 | 3 |
| Ald-6HIS_E67G (ligand) not shown | 0.879 | 0.007 | 30 | 3 | 600 | 2 |
| Ald-6HIS_F41L (ligand) not shown | 1.56 | 0.087 | 100 | 10 | 2000 | 5 |
| Ald-6HIS_K34D (ligand) not shown | 0.865 | 0.012 | 300 | 30 | 1000 | 3 |
| Ald-6HIS_K42G (ligand) not shown | 1.63 | 0.033 | 100 | 10 | 600 | 2 |
| Ald-6HIS_K63G (ligand) not shown | 0.485 | 0.005 | 40 | 4 | 500 | 1 |
| Ald-6HIS_L71I (ligand) not shown | 0.68 | 0.006 | 10 | 1 | 400 | 1 |
| Ald-6HIS_P64A (ligand) not shown | 0.608 | 0.005 | 10 | 1 | 500 | 1 |
| Ald-6HIS_R37G (ligand) not shown | 0.753 | 0.018 | 500 | 50 | 600 | 2 |
| Ald-6HIS_T36D (ligand) not shown | 0.468 | 0.006 | 50 | 5 | 800 | 2 |
| Ald-6HIS_T40D (ligand) not shown | 0.614 | 0.216 | 500 | 50 | 600 | 2 |
| Ald-6HIS_Y44V (ligand) not shown | 4.19 | 0.679 | 600 | 60 | – | – |
